In all, about 310,000 compounds went through this assay and about 2,200 (0.71%) showed an effect of 50% or more. Effects have a minus sign here. Some of the results follow.
Target: human ether-à-go-go-related gene (hERG) potassium channel (human, UniProt Q12809)
Experiment: primary screen, population patch clamp on CHO cells stably expressing hERG

Sequence of human ether-à-go-go-related gene (hERG) potassium channel (Q12809 whole entry, looked up): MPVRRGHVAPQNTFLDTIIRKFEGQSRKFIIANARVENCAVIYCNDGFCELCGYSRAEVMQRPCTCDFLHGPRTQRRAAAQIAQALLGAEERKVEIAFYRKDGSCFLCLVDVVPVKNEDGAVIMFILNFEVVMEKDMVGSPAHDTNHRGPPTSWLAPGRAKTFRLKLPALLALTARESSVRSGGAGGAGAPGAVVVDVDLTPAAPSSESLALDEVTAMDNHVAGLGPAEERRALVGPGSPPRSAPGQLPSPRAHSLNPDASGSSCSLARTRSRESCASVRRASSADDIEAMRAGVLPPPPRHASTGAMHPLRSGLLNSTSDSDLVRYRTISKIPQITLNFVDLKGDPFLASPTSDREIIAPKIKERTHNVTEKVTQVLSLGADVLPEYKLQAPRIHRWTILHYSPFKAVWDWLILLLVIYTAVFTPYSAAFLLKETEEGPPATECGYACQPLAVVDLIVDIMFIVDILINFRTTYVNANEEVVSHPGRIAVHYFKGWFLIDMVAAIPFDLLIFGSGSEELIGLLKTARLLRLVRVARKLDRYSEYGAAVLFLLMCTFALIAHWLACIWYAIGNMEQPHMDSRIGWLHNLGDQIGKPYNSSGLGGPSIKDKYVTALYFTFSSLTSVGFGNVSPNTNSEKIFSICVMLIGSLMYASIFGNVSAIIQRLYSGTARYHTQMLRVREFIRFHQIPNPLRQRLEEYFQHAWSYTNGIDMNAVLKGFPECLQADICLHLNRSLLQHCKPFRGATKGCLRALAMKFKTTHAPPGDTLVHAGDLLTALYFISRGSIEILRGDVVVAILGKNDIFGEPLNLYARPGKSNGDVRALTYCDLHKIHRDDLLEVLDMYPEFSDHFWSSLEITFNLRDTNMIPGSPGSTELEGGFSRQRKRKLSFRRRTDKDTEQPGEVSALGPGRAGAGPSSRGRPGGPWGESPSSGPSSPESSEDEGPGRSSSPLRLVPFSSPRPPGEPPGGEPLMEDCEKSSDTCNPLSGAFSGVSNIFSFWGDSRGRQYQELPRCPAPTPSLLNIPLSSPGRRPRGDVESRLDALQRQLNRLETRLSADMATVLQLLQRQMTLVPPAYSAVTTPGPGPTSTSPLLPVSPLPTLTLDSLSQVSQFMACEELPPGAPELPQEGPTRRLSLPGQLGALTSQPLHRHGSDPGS

First: COc1cc(C(=O)O)ccc1OC(C)=O
Second: C/C(N)=C(/C#N)C(=O)COC(=O)COc1ccc(Cl)cc1
The “hERG current change (%, negative = inhibition) at 1uM” value of the first is higher: 13.2% for the first, 4.43% for the second.

Compared with `COc1cccc(-c2onc3ccc(C4(C)OCCO4)cc23)c1`, `CC(=O)Oc1ccc(/C=C2\C=C(c3ccc(C)cc3)OC2=O)cc1` is lower in “hERG current change (%, negative = inhibition) at 1uM” value: 12% for the first, 11.6% for the second.

Compared with `COc1cc(CCC(=O)OCC(=O)Nc2c(C)cccc2C(C)C)cc(OC)c1OC`, `Cc1ccc(NC(=O)COC(=O)Cn2c(C)csc2=O)c([N+](=O)[O-])c1` is higher in “hERG current change (%, negative = inhibition) at 1uM” value: 11.5% for the first, 16.5% for the second.

Going from `CCOc1ccc(S(=O)(=O)N2CCOCC2)cc1NC(=O)C1=COCCO1` to `CCCCNC(=O)c1oc2ccc(S(=O)(=O)N3CCCC3)cc2c1C`, the “hERG current change (%, negative = inhibition) at 1uM” value rises from 0.815% to 4.78%.

Compared with `O=C(CCN1C(=O)C2CC=CCC2C1=O)Nc1ccccc1Cl` (stereo not drawn), `Cc1cc(Cl)ccc1OCC(=O)NC(=S)Nc1ccccc1N1CCOCC1` is higher in “hERG current change (%, negative = inhibition) at 1uM” value: 10.9% for the first, 14.7% for the second.

First: CCOC(=O)c1sc(NC(=O)CN2CCN(c3ccccc3)CC2)nc1C
Second: CCOC(=O)N1CCC(NC(=O)c2ccc(CS(=O)c3ccc(Cl)cc3)o2)CC1 (stereo not drawn)
The “hERG current change (%, negative = inhibition) at 1uM” value of the first is lower: 11.8% for the first, 15% for the second.

Going from `CCOc1nc(NCCO)nc(Nc2cc(Cl)ccc2OC)n1` to `COc1ccc(-n2ncc3c(NCC(C)C)ncnc32)cc1`, the “hERG current change (%, negative = inhibition) at 1uM” value falls from 12.8% to 6.4%.

First: Cc1ccc(-n2c3c(c(=O)[nH]c2=S)C(C(F)(F)F)(C(F)(F)F)NC(=O)N3)cc1
Second: Cc1ccc(S(=O)(=O)N2CCC(=O)N(CCOCc3ccc(C(F)(F)F)cc3)CC2)cc1
The “hERG current change (%, negative = inhibition) at 1uM” value of the first is lower: -3.05% for the first, 1.04% for the second.

First: Cc1ccc(S(=O)(=O)c2nc(-c3ccccc3)oc2N2CCC(C(N)=O)CC2)cc1
Second: O=C(C1CCCN(S(=O)(=O)Cc2ccccc2)C1)N1CCc2ccccc21 (stereo not drawn)
The “hERG current change (%, negative = inhibition) at 1uM” value of the first is lower: -4.34% for the first, 4.67% for the second.

Compared with `Cc1ccccc1Nc1nc(N)nc(COC(=O)c2cccc(S(=O)(=O)N(C)c3ccccc3)c2)n1`, `CCN(CCn1cccn1)Cc1nc(-c2ccc(C(=O)OC)cc2)no1` is higher in “hERG current change (%, negative = inhibition) at 1uM” value: 0.0292% for the first, 13.2% for the second.

First: Cc1ccc(/C=N/n2c(-c3ccc(Cl)cc3)n[nH]c2=S)o1
Second: CCOc1ccc(NC(=O)CCc2c(C)nn(-c3ccc(N4CCCCC4)nn3)c2C)cc1
The “hERG current change (%, negative = inhibition) at 1uM” value of the first is lower: 9.87% for the first, 10.9% for the second.

Compared with `O=C(CSc1nnnn1C1CC1)N1CCN(c2ccccc2F)CC1`, `CCCN(CCC)CCCNC(=O)c1cc2c(=O)[nH]c3ccccc3c2s1` is higher in “hERG current change (%, negative = inhibition) at 1uM” value: 7.66% for the first, 10.3% for the second.
